The results in this text go back to paper PMC4336329 (PLoS ONE, 2015).

The whole screen tested about 310,000 compounds, of which about 14,000 (4.5%) showed an effect of 50% or more. The effect is printed as a negative number. The list shows a part of the results.
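Further: peak tail current of the secondary pulse compared with the same well before compound.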

Chain of human ether-à-go-go-related gene (hERG) potassium channel (Q12809 whole entry, looked up): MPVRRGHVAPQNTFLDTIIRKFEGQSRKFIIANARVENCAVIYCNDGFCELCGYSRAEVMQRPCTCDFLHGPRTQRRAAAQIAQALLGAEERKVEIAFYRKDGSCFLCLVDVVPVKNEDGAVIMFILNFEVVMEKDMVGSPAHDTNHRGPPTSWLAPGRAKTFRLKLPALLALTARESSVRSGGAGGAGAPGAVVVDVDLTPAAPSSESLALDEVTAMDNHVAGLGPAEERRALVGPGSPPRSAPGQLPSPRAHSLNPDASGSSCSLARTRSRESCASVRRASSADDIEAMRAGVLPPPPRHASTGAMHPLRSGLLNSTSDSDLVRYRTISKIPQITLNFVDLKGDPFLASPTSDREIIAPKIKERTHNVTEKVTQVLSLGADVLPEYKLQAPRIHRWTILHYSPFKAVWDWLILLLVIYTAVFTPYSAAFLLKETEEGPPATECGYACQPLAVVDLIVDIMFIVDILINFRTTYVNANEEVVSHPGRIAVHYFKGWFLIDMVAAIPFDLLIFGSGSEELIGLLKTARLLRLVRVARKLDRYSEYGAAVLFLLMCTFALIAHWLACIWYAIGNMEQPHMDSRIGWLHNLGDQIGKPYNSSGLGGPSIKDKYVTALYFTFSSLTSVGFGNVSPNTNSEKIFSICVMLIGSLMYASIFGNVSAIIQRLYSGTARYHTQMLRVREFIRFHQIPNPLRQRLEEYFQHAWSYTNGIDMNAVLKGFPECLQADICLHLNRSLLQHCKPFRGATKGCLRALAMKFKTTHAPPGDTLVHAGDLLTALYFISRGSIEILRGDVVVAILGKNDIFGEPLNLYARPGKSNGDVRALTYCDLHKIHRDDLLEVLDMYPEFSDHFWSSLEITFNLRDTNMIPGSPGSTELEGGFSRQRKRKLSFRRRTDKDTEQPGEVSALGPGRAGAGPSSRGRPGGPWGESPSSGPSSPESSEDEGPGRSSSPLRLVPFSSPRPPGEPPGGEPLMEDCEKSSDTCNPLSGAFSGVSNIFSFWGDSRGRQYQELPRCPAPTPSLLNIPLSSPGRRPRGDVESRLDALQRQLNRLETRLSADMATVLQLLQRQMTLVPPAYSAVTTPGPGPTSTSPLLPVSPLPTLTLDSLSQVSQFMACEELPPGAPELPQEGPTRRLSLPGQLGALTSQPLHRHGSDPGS

This test addresses human ether-à-go-go-related gene (hERG) potassium channel (human, UniProt Q12809). The test is described as follows: primary screen, population patch clamp on CHO cells stably expressing hERG.
With `O=C(Nc1nnc(SCC(=O)N2CCCCC2)s1)c1c(F)cccc1F`, the “hERG current change (%, negative = inhibition) at 10uM” value was 15.5%.
As to `CCc1noc(C)c1C(=O)Nc1ccc(F)c(F)c1F`, the “hERG current change (%, negative = inhibition) at 10uM” value amounted to 6.4%.
Take `Cc1cc(C(=O)COc2ccc(C#N)cc2)c(C)n1C1CC1`: the “hERG current change (%, negative = inhibition) at 10uM” value is given as -21.8%.
Regarding `COc1cc(OC)cc(-c2nc(N)n[nH]2)c1`, the “hERG current change (%, negative = inhibition) at 10uM” value was -0.678%.
For `C=CCn1c(SCC(=O)Nc2sccc2C#N)nc2sc(C)c(C)c2c1=O`, the “hERG current change (%, negative = inhibition) at 10uM” value is given as 13.1%.
`CCN(CC)S(=O)(=O)c1ccc(C(=O)Nc2ccc(Cc3ccncc3)cc2)cc1`: the “hERG current change (%, negative = inhibition) at 10uM” value is reported as -46%.
With `CCOc1ccc(/C=C2\SC(=S)N(C(C(=O)O)c3ccccc3)C2=O)cc1OC` (centres unmarked) the figure was 5.32%; with `CC1CCC(NC(=O)CSc2nnc(-c3cccnc3)o2)CC1` (centres unmarked), 0.0964%.
Turning to `COc1cccc(NC(=S)Nc2ccc(F)cc2)c1`, the “hERG current change (%, negative = inhibition) at 10uM” value came to 13.8%.
Turning to `O=C(O)CCC(=O)Nc1nc2ccccc2s1`, the “hERG current change (%, negative = inhibition) at 10uM” value is -8.56%.
With `Cc1ccc(C#N)c(SCc2ccccc2F)n1` the figure was 13.2%; with `Cc1ccc2nc(/C(C#N)=C\c3ccc(OC(=O)c4cccs4)cc3)[nH]c2c1`, -8.76%; with `O=C(/C=C/c1cccc2ccccc12)N1CCOCC1`, -1.15%.
With `COc1ccc(CNC(=O)C(C)NS(=O)(=O)c2ccc(C)cc2)cc1` (centres unmarked), the “hERG current change (%, negative = inhibition) at 10uM” value is -0.46%.
`CCOC(=O)Nc1ccccc1N1C(=O)c2ccccc2C1=O`: the “hERG current change (%, negative = inhibition) at 10uM” value was 8.32%.
The figure for `Cn1c(=O)c2c(nc(Sc3ncnn3CC(=O)NC3CCCCC3)n2C)n(C)c1=O` is 2.06%.
Regarding `Cc1cc(=O)oc2cc(OCC(=O)N3CCCC3)c(Cl)cc12`, the “hERG current change (%, negative = inhibition) at 10uM” value is reported as -3.11%.
On to `CCOc1cc(S(=O)(=O)n2ccnc2)ccc1Cl`, for which the “hERG current change (%, negative = inhibition) at 10uM” value is given as 16.5%.
As for `Cl.O=C(OC1CCN(CCCl)CC1)C(c1ccccc1)c1ccccc1`, the “hERG current change (%, negative = inhibition) at 10uM” value turned out to be 11%.
With `CC(=O)N1CCN(S(=O)(=O)c2cccc(C(=O)NCCc3ccc(Cl)cc3)c2)CC1` the figure was -12.1%.
`CCOC(=O)N1CCN(c2ncnc3c2[nH]c2ccc(F)cc23)CC1`: the “hERG current change (%, negative = inhibition) at 10uM” value is recorded as -2.67%.
Regarding `Cc1cccc(NC(=O)CSc2ccc(-c3cccnc3)nn2)c1`, the “hERG current change (%, negative = inhibition) at 10uM” value is recorded as -16.3%.
Take `COc1ccccc1N1CCN(C(=O)c2cccc3c(=O)c(C)c(-c4ccccc4)oc23)CC1`: the “hERG current change (%, negative = inhibition) at 10uM” value is listed as -31.2%.
Consider `C=CCn1c(SCC(=C)C)nc2c1c(=O)[nH]c(=O)n2C`, for which the “hERG current change (%, negative = inhibition) at 10uM” value is -45.7%.
On to `CC(=O)NC1=NN(C(C)=O)C2(CCCCC2)S1`, for which the “hERG current change (%, negative = inhibition) at 10uM” value was determined as 0.393%.
As to `COc1cc(NC(=S)N2CCC(C(N)=O)CC2)c(OC)cc1Cl`, the “hERG current change (%, negative = inhibition) at 10uM” value turned out to be 20.3%.
